In publication PMC4918322:
Positions count from the first letter of the chain named. No constants are given. Whether binding was seen depends on the method and setting. In cells and extracts the contact can be indirect. Some entries that bind do so weakly or less than the wild type. Tags and fused reporters may be left off the sequences shown.

Experiments:
[1] = molecular target: T1, V5-tagged RSF1-C1 S1375D (human) (UniProt Q96T23); test: co-IP; RSF1 KO HeLa cells transfected with RSF1-C1-V5 constructs, paclitaxel 16 h; mitotic lysates immunoprecipitated with anti-V5 antibody, immunoblotting
T1 sequence: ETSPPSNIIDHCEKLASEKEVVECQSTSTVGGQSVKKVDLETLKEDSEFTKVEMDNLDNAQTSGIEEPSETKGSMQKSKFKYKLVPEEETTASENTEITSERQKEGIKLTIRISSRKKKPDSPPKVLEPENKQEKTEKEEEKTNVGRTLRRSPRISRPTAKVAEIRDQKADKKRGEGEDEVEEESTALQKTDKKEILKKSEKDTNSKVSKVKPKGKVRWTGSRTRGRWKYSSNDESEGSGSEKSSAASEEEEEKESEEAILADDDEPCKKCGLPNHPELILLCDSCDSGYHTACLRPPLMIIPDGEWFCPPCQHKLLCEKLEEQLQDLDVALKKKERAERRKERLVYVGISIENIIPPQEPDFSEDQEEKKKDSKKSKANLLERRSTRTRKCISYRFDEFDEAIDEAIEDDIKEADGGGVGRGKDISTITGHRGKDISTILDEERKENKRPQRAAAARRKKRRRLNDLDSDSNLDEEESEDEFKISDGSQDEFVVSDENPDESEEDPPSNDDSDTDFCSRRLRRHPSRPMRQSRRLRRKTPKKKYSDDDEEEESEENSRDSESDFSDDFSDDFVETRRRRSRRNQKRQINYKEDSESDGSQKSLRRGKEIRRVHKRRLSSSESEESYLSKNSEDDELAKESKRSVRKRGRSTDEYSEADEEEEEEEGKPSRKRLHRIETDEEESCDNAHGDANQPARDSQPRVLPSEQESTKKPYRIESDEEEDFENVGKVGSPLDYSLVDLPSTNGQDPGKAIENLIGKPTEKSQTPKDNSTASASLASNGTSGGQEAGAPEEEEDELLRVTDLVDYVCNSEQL

[2] = molecular target: T2, V5-tagged RSF1-C1 (amino acids 627-1441) (human) (UniProt Q96T23); test: condition: only cells treated with the CDK1 inhibitor Ro3306 for 15 min; co-IP; as a7, cells pre-treated with MG132 for 1 h and with the CDK1 inhibitor Ro3306 for 15 min before harvest; anti-V5 immunoprecipitation
T2 sequence: T1 sequence with D749S

endogenous PLK1 (from UniProt P53350 1-603)
binding [1]: binds
binding [2]: no binding
